# The other results are listed elsewhere or left out.
# Molecular target: T1, OsWOX13 (Oryza sativa, UniProt Q5QMM3 1-267)
# T1 sequence: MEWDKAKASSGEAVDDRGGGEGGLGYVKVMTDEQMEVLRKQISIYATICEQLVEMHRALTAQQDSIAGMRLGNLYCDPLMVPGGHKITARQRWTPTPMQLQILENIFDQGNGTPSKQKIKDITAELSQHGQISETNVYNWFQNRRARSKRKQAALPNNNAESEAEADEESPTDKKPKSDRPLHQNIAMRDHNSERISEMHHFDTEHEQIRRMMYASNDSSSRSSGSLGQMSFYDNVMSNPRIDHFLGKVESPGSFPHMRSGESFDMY
# Assay: protein-binding microarray (RPBM); PBS, 2% BSA, 51.3 ng/ul salmon testes DNA, 50 uM zinc acetate, 200 nM TF, 25 C, 1 h; high values mean tight binding
# Details: protein: recombinant; tags: N-terminal polyhistidine and DsRed monomer fusion (pET32a); label: CyDye5-dUTP incorporated in the synthesized complementary strand; 3' TTTTT single-stranded linker to array surface; dsDNA, one strand shown
# Summary of the method: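 Transcription factors were made in E. coli BL21-CodonPlus as N-terminal fusions to a polyhistidine tag and DsRed, then purified on Ni–NTA. After primer extension with Cy5-dUTP and blocking with 2% BSA, a custom Agilent array was exposed for 1 h at 25 °C to 200 nM protein in PBS, 2% BSA, salmon testes DNA and 50 µM zinc acetate. Washed arrays were scanned on an Axon 4000B, and the binding signal is per-feature fluorescence intensity in arbitrary units.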
row,Sequence,binding signal
1,TGTGGTTTTCTAGTTAATTAACAAGCTAGCTATACCTAGCCGGAGTCACCTAGTGCAG,7460 fluorescence intensity (a.u.)
2,CATACACCTTATGATTAGATAAGTATGTGTCACCAGGAATCGGAGTCACCTAGTGCAG,4650 fluorescence intensity (a.u.)
3,AAAAGATTGAATGTGGAAGTTCTATCTCAATCATATGCTTCGGAGTCACCTAGTGCAG,39400 fluorescence intensity (a.u.)
4,GAAACTAATTTAGAGTATTAAATATAACTACTTATAAAACCGGAGTCACCTAGTGCAG,5570 fluorescence intensity (a.u.)
5,CCTGATGGAAGTCTTAAGACATCTGAGGACAACCTTGATGCGGAGTCACCTAGTGCAG,13300 fluorescence intensity (a.u.)
6,CTCAGGTTAATTACATCACGCGTTGTTCTATGAAGATACACGGAGTCACCTAGTGCAG,10900 fluorescence intensity (a.u.)
7,CATCAATTAGGAACGAGAATGGCCGAGAGAGTTGAATTTGCGGAGTCACCTAGTGCAG,18900 fluorescence intensity (a.u.)
8,ATAATTATTTAAAAGTAATTTGTGGTTAAAGTGAGATGATCGGAGTCACCTAGTGCAG,14600 fluorescence intensity (a.u.)
9,GTCTAAATTATCTTTATTTATACATAAATATAATATTAACCGGAGTCACCTAGTGCAG,15800 fluorescence intensity (a.u.)
10,TTTTGATTGTGTCATTGCCTGCAATGACAGGTCAGAAAACCGGAGTCACCTAGTGCAG,14000 fluorescence intensity (a.u.)
11,TAACGACGTGATTAGGGCAGAGAATACGATACAAATTCGTCGGAGTCACCTAGTGCAG,15800 fluorescence intensity (a.u.)
12,CCCGATTGACAAGCTGACTCAGCATGGAGGGACCCACATGCGGAGTCACCTAGTGCAG,37700 fluorescence intensity (a.u.)
13,GTCCGTAATTGATCATATTTATCATTTAAATTACTCAGTGCGGAGTCACCTAGTGCAG,61900 fluorescence intensity (a.u.)
14,ATTTGTCCAAAACATCAATTGATTTTGTCTGGAGGAAGTACGGAGTCACCTAGTGCAG,5760 fluorescence intensity (a.u.)
15,TGACTAATTTATTATTCCATAAAATTTTCAAATAAGATATCGGAGTCACCTAGTGCAG,13200 fluorescence intensity (a.u.)
16,TTCCTGTGCTAATTTAACTGCATAAACCATGTAGAGTTGACGGAGTCACCTAGTGCAG,6440 fluorescence intensity (a.u.)
17,GACAATATTAATTACTGCTGCTTTCGTCCACACAGTGAAACGGAGTCACCTAGTGCAG,6490 fluorescence intensity (a.u.)
18,TGATTAGTTAATTAATCAATTTGAGATGGCATGCTGATACCGGAGTCACCTAGTGCAG,29100 fluorescence intensity (a.u.)
19,AATAATAATAACAATTATATTTGTTTTAAATAAGACAGAACGGAGTCACCTAGTGCAG,4000 fluorescence intensity (a.u.)
20,TTTGATAATATAAATAATTAATAACTAACACATATATAAACGGAGTCACCTAGTGCAG,6390 fluorescence intensity (a.u.)
21,TGCTAGATTAGCATGCATGATGCATGTAGGAGCACAATATCGGAGTCACCTAGTGCAG,5340 fluorescence intensity (a.u.)

row,Sequence,binding signal
1,GGCGATTGATTTGCGCGTGGAAGGAAATCGACAATCGAGTCGGAGTCACCTAGTGCAG,39500 fluorescence intensity (a.u.)
2,TTACAGTTTCAAATCAATTTACAATCACATTCTTGATCTACGGAGTCACCTAGTGCAG,17700 fluorescence intensity (a.u.)
3,AAACAAATTTGTGGCGACACAAATACAACCTTTCCGTTTTCGGAGTCACCTAGTGCAG,3540 fluorescence intensity (a.u.)
4,TTTAGCTTGATTGGTGATTTGCTGTTTTGCTCCAAGGTATCGGAGTCACCTAGTGCAG,44600 fluorescence intensity (a.u.)
5,CAAAACTACTGCAATTATTATATGTTTAGTGCCACTGCGACGGAGTCACCTAGTGCAG,6190 fluorescence intensity (a.u.)
6,CGTTCTAATTCCAATCAAACTTTCAATTTTGGCGTGAACTCGGAGTCACCTAGTGCAG,38400 fluorescence intensity (a.u.)
7,GAAAATTTCATACAAATTACATTGTAGTTACACGCAAGTTCGGAGTCACCTAGTGCAG,5990 fluorescence intensity (a.u.)
8,AATTAATTAAGGAAAGAAATACATAAATCAAATATCGCACCGGAGTCACCTAGTGCAG,18500 fluorescence intensity (a.u.)
9,TTTCCTGATTACGACTCTCTATGGTTGTAATCTTATAATTCGGAGTCACCTAGTGCAG,5890 fluorescence intensity (a.u.)
10,AAAATTGTAAATTTGGTTGAAATTGGAACGATGTTATGGACGGAGTCACCTAGTGCAG,14100 fluorescence intensity (a.u.)
11,TCTTTAATTAGTAGCACTGAACAGTGAACACCAGTGCAGTCGGAGTCACCTAGTGCAG,25600 fluorescence intensity (a.u.)
12,TGTCAATTAGACAACCTAAGATGACCACTGTAAAGGTTTCCGGAGTCACCTAGTGCAG,13300 fluorescence intensity (a.u.)
13,AGATTCTGTCAAATTGACAAACGAGCCTTCTTCAGTTCCCCGGAGTCACCTAGTGCAG,26400 fluorescence intensity (a.u.)
14,ATTTACTGATTACTGCCCCAGATTTGCTACAGTCCCCATACGGAGTCACCTAGTGCAG,22800 fluorescence intensity (a.u.)
15,ATGAATTTATTGATTGGGTTGGAGAGGGGAATCTCTCCAACGGAGTCACCTAGTGCAG,17100 fluorescence intensity (a.u.)
16,TGTTCGGATTGATACCATTTCGAACCATACCAGTAAAGTTCGGAGTCACCTAGTGCAG,9770 fluorescence intensity (a.u.)
17,AATAATTTGTGGTTAGATGACACTATCTTTTCAATTCTGTCGGAGTCACCTAGTGCAG,35400 fluorescence intensity (a.u.)
18,TTTGTTAATTTAGTGCTCGATCGTACACCTCTGGATCTCACGGAGTCACCTAGTGCAG,6060 fluorescence intensity (a.u.)
19,GTTTAATTTGTGTCTTCTAGTGCAATTTCAGGCTCCTGTACGGAGTCACCTAGTGCAG,24300 fluorescence intensity (a.u.)
20,TATCCATCTAATCAAACATTGTAGATAAACCACAATGAGCCGGAGTCACCTAGTGCAG,7740 fluorescence intensity (a.u.)
21,GGGCCTGAACTATGTTATGATTGATTTGGAAAAGTGGGTCCGGAGTCACCTAGTGCAG,26000 fluorescence intensity (a.u.)

# Reference: publication PMC7819943, “Rice protein-binding microarrays: a tool to detect cis-acting elements near promoter regions in rice”
